# Reference: PubChem BioAssay AID488969 (Vanderbilt High Throughput Screening Facility, 2010)
# The full ranking holds about 110,000 compounds; the median of “z-score” is about -0.1, and the highest 2% start at about 2. The list shows a part of the results. Activity calls are given as the source filed them.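 How the source made its calls: active means z-score in the third read window above 3 or below -3; inactive means the rest.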
# Molecular target: Metabotropic glutamate receptor 8 (Rattus norvegicus) (UniProt P70579)
# Assay: rat mGluR8 modulators via GIRK flux, primary screen, cell-based, thallium flux, HTS (AID 488969)
# Conditions: HEK293 rat mGluR8, GIRK (G protein-gated inwardly rectifying potassium channel) thallium flux, FluoZin2; at 10 µM; stronger effect = higher value; submaximal glutamate (EC20) added with thallium
# Chain of UniProt P70579 (P70579 whole entry, looked up): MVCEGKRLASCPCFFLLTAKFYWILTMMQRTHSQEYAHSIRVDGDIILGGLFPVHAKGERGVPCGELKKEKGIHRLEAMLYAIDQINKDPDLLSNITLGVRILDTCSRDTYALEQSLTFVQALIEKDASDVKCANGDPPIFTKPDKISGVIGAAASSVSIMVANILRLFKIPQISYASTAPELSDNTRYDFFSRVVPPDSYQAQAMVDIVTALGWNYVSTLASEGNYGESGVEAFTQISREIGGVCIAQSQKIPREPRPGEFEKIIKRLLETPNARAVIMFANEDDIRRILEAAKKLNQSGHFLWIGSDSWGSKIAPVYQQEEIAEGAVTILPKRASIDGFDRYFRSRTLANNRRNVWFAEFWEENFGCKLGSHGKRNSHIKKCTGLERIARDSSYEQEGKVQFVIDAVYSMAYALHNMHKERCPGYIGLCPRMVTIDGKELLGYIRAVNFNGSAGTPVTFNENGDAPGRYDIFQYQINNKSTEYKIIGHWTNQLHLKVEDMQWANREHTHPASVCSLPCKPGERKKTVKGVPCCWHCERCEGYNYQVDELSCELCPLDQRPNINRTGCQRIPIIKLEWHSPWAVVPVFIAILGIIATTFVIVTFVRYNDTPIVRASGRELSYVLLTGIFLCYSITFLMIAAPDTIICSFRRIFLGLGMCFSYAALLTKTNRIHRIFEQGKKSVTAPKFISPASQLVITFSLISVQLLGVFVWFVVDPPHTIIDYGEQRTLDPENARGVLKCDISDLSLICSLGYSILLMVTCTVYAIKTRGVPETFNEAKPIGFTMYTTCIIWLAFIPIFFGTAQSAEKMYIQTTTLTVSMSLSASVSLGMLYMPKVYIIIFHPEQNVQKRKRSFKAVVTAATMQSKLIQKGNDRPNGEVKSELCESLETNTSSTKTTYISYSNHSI
row,Structure (SMILES),z-score
1,COC(=O)NNC(=O)COc1ccc2ccccc2c1Br,-0.336
2,COc1cc(-c2c(C#N)c(N)nc3c2CCCC3)cc(OC)c1OC,-2.82
3,CCOc1ccc(-c2nnc(SCc3nc4ccccc4[nH]3)n2N)cc1,0.0568
4,CC(=O)Cc1nsc(NC(=O)c2ccccc2)n1,-0.744
5,COc1ccc(CC(=O)N2CC(C)CC(C)C2)cc1OC (configuration not stated),0.418
6,COc1ccc(C(=O)Cc2ccc(OC)c(OC)c2)c(OC)c1,0.183
7,CCn1cc(C(=O)O)c(=O)c2cc(F)c(N/N=C/c3ccccc3)cc21,-0.559
8,COc1ccc(C(=O)CSc2nnc(NC(=O)C3CC(=O)N(c4ccccc4C)C3)s2)cc1 (configuration not stated),-0.0938
9,CCOC(=O)Cc1csc(NC(NC(=O)OCC)(C(=O)OCC)C(F)(F)F)n1 (configuration not stated),1.79
10,CC(C)N(C(=O)COC(=O)[C@@H]1CC(O)CN1S(=O)(=O)c1ccccc1[N+](=O)[O-])C(C)C (some centres not stated),-0.0393
11,O=C(c1ccccn1)N(Cc1cc2ccccc2[nH]c1=O)C1CCCCC1,-0.167
12,O=C(CCC(=O)c1ccc(F)cc1)Nc1cccc(C(F)(F)F)c1,-0.344
13,O=C(/C=C/c1ccco1)Nc1nc(-c2ccccc2)cs1,-0.216
14,Cc1cc2cc(CNC(=O)c3ccc(S(=O)(=O)N4CCCC4)cc3)ccc2n1C,-0.454
15,CCOC(CCNC(=O)c1cn(-c2cccc(C)n2)cn1)OCC,-0.118
16,CSCCC(NC(N)=O)C(=O)N(C)CC(=O)Nc1cc(C)ccc1C (configuration not stated),0.00676
17,Cc1ccc(S(=O)(=O)Nc2ccccc2C(N)=O)cc1,-0.215
18,COc1ccc(NC(=O)c2cc3c(=O)n(C)c4ccccc4c3n2C)cc1OC,-1.38
19,Cc1ccc(-c2cn(-c3ccc(SC(F)F)cc3)c3[n+]2CCC3)cc1,-0.0421
20,CCCCN1CC(O)=C(c2nc3ccccc3[nH]2)C1=N,-0.0274
21,CCc1nnc(NC(=O)c2ccc(Cl)c(S(=O)(=O)N3CCc4ccccc4C3)c2)s1,-0.209
22,N#Cc1ccc(Oc2nc(C(N)=O)cc(-c3ccccc3)n2)cc1,-0.0624

row,Structure (SMILES),z-score
1,COc1ccc(-c2n[nH]c(=S)n2/N=C/C=C/c2ccccc2OC)cc1,0.578
2,Cn1c(=O)c2c(nc(SCc3ccccc3)n2Cc2ccc(Cl)cc2)n(C)c1=O,-0.333
3,Cc1c(C(=O)N2CCOCC2)[nH]c2ccc(OCc3ccccc3)cc12,-0.364
4,CC1CCN(CCCNC(=O)c2coc3nc4ccccc4nc23)CC1,0.221
5,CC(=O)C1=C(O)C(=O)N(CCc2c[nH]c3ccccc23)C1c1ccc(O)cc1 (configuration not stated),0.33
6,Cc1cccc(NC(=O)CSc2nc(C)c(CC(=O)c3ccc(Br)cc3)c(C)c2C#N)c1C,-0.015
7,CCc1nnc(NC(=O)CSc2nc(-c3ccccc3)cc(-c3ccc(F)cc3)c2C#N)s1,-0.163
8,CCN1CCc2c(C#N)c(N3CCOCC3)nc(N3CCOCC3)c2C1,1.35
9,Cc1oc(-c2cccc(Cl)c2)nc1CN1CCCC(C(=O)NC(C)c2ccc3c(c2)OCCO3)C1 (configuration not stated),0.226
10,Cc1ccc(C)c(NC(=O)/C(C#N)=C/c2cn(CC(=O)NCc3ccco3)c3ccccc23)c1,-0.228
11,COc1ccccc1CNC(=O)C1CC(=O)N(c2ccc(C)c(C)c2)C1 (configuration not stated),-0.345
12,CC1=CC(C)(C)N2C(=O)C3(SCC(=O)N3c3ccc(O)cc3)c3cc(C)cc1c32 (configuration not stated),0.599
13,COc1ccc(C(=O)Nc2ccc(Oc3ncnc4sc(-c5ccccc5)cc34)cc2)cc1OC,active: 4.83
14,CC1(C)CC2(CCO1)OC(=O)CC2C(=O)NCc1ccccc1 (configuration not stated),-0.908
15,COc1ccc(C(=O)NC(=S)NNC(=O)c2ccc(NC(=O)C(C)C)cc2)cc1,0.0333
16,Clc1ccc(CSc2nnnn2-c2ccc3c(c2)OCO3)c(Cl)c1,-0.127
17,O=c1c2ccccc2sn1-c1cc(S(=O)(=O)N2CCOCC2)ccc1N1CCOCC1,-0.736
18,COc1ccc(-c2cn3ccc4ccccc4c3n2)cc1,-0.114
19,CCOC(=O)CCc1c(C)c2ccc(OC(C)C(=O)OCC)c(C)c2oc1=O (configuration not stated),-0.888
20,O=C(Cc1ccc(Cl)cc1)Nc1nc2ccccc2[nH]1,0.0357
21,CCc1ccc(C(=O)C(C)OC(=O)C2COc3ccccc3O2)cc1 (configuration not stated),-0.623
22,Cc1cnc(C(=O)OCC(=O)NC(=O)NC(C)C)cn1,0.585

row,Structure (SMILES),z-score
1,CC(C)Nc1nc(Cl)nc(NNC(=O)C(C)Oc2ccccc2)n1 (configuration not stated),-0.057
2,CC(C)c1ccc(NC(=O)NC2CCCCC2)cc1,0.432
3,Cc1c(C#N)c2ccccc2n1CC(=O)N1CCCc2ccccc21,-0.568
4,CCOC(=O)C(CC)Sc1ncnc2c1nnn2-c1ccc(F)cc1 (configuration not stated),-0.251
5,CCn1c2ccccc2c2cc(NC(=O)COc3ccccc3OC)ccc21,0.73
6,Cc1cccc(-n2nc(C(=O)c3ccco3)cc(-c3nc4ccccc4[nH]3)c2=N)c1,-0.188
7,O=C(NCc1cccnc1)C(=O)NCC(c1ccco1)N1CCN(c2ccc(F)cc2)CC1 (configuration not stated),-0.331
8,Cn1nc(C(=O)N2CCCC2)c2ccccc2c1=O,1.07
9,CCOc1nnc(C)c2c(C)n(-c3ccc(Cl)cc3)nc12,-0.615
10,O=C1S/C(=C\c2ccccc2)C(=O)N1CC(O)Cn1c2ccccc2c2ccccc21 (configuration not stated),-0.342
11,CC(C)(C)c1nnc(NC(=O)C2CCN(c3ncccn3)CC2)s1,0.166
12,O=C(NCc1ccco1)c1csc(Nc2ccccc2Cl)n1,-1.61
13,CCOC(=O)c1sc(NC(=O)CSc2nc(C)cc(C(F)(F)F)n2)c(C#N)c1C,1.56
14,CC(C)CCNc1nc2c(c(=O)n(Cc3cccc(F)c3)c(=O)n2C)n1C,-0.671
15,Cc1ccccc1N(C(=O)Cc1cccs1)C(C(=O)NC1CCCCC1)c1cn(C)nc1C (configuration not stated),-0.194
16,CN(C)S(=O)(=O)N1CCC(CCCC2CCN(S(=O)(=O)N(C)C)CC2)CC1,-0.92
17,CCCn1c(C)cc(C(=O)COC(=O)c2ccc[nH]c2=O)c1C,0.545
18,N#Cc1cn(CC(=O)N2CCCC2)c2ccccc12,-0.707
19,Cc1csc(NC(=O)NC2(C(F)(F)F)Oc3ccccc3O2)n1,-0.174
20,COC(=O)c1ccc(CSc2nnc(NC(C)C)s2)cc1,-0.419
21,COc1ccc(C(=O)NCC(=O)OCc2cccc(Br)c2)cc1,-0.0855
22,Cc1nnc(NC(=O)CSc2nnc(Cc3cccn3C)n2C)s1,-1.68

row,Structure (SMILES),z-score
1,CCOc1ccc(OCCSc2nc3ccccc3o2)cc1,0.107
2,COc1ccc(OC(=O)c2cn(C)nc2C(F)(F)F)cc1,0.00378
3,CCCCOc1ccc(C(=O)Nc2ccc(SC(F)F)cc2)cc1OC,-0.296
4,Cc1cc(C)n2nc(-c3cnn(C)c3C(F)(F)F)cc2n1,0.0767
5,CC(=O)c1ccc(N2CCN(C(=O)c3cc(C)on3)CC2)cc1,0.13
6,Cc1coc(C)c1C(=O)CC1(O)C(=O)N(Cc2ccccc2)c2ccccc21 (configuration not stated),-0.0594
7,N#CCCN1CCN(Cn2c3ccccc3c3ccccc32)CC1,0.677
8,Cc1ccc2[nH]c(=O)c(CN(CCO)C(=O)N(C)C)cc2c1,-0.0536
9,CN1CCN(C(=O)/C(=C\c2cccs2)NC(=O)c2cccs2)CC1,-0.694
10,CCOC(=O)c1c(N)sc2c1CCC1C(=O)N(C3CCCCC3)C(=O)C21 (configuration not stated),0.138
11,CCOC(=O)c1ccc(NC(=S)N2CCC(O)CC2)cc1,0.0438
12,CCCCC1(C)OC(=O)C(=Cc2ccc(N(C)C)cc2)C(=O)O1 (configuration not stated),-0.437
13,COc1ccc(/C=C/C(=O)NC(=S)Nc2ccc(C(=O)O)cc2)cc1,-0.426
14,Cc1ccccc1N1C(=O)c2ccccc2C1Nc1cccnc1 (configuration not stated),-0.57
15,Cc1ccccc1NC(=O)Nc1ccccc1C(=O)NCc1ccccc1,-0.117
16,COc1ccc(S(=O)(=O)N2CCC(C(=O)NCCC3=CCCCC3)CC2)cc1OC,0.903
17,O=C(Cc1ccccc1)NC(=S)Nc1cc(C(F)(F)F)ccc1Cl,0.00533
18,COc1ccc(S(=O)(=O)CCC(=O)NCCc2ccc(Cl)cc2)cc1,-0.0642
19,Cc1cc(C(=O)N2CCN(C/C=C/c3ccccc3)CC2)cs1,0.0804
20,CCC(C)N1C(=O)c2ccccc2C1C(=O)NC1CCCCCC1 (configuration not stated),-0.0901
21,CCC(c1c(C)[nH]oc1=O)c1c(C)[nH]oc1=O,0.119
22,CNc1ccccc1C(C)(C)c1cc(-c2cc(C)cc(C)c2)no1,-0.131

row,Structure (SMILES),z-score
1,COc1ccccc1-n1c(SCC(=O)Nc2cccc3ccccc23)nc(O)cc1=O,0.314
2,Cc1cc(C)nc(SCC(=O)Nc2ccc(N3CCOCC3)cc2)n1,-0.197
3,O=C(CCCn1cnc([N+](=O)[O-])n1)Nc1ccc(Cl)cc1Cl,-0.0117
4,Cc1cccc(NC(=S)N(CCc2nc3cc(C)c(C)cc3[nH]2)Cc2cccnc2)c1,0.689
5,S=c1[nH]nc(COc2ccccc2)n1C1CCCCC1,1.08
6,Cn1c(=O)oc2cc(S(=O)(=O)N3CCCC(C(=O)NC4CCCc5ccccc54)C3)ccc21 (configuration not stated),-0.0663
7,Cc1nc(-c2ccccc2)nc2[nH]c(-c3ccccc3)cc(=O)c12,0.0625
8,O=c1cc(CN2CCN(c3ccc(F)cc3)CC2)nc2sccn12,0.775
9,COC(=O)c1sc2nc3c(cc2c1N)COC(C)(C)C3,-0.0485
10,O=C1C2N=NN(CC(=O)N3N=C(c4cccc5ccccc45)CC3c3ccccc3)C2C(=O)N1c1ccccc1 (configuration not stated),-0.148
11,COc1ccc(NC(=O)c2ccc(C)cc2Cl)c([N+](=O)[O-])c1,-0.0358
12,COc1c(Cl)cc(C(=O)Nc2ccc(Cl)cn2)cc1Cl,-0.67
13,C/C(=N\OC(=O)c1ccc(F)cc1)c1sc(-c2ccccc2)nc1C,1.29
14,COc1ccc(CNc2nc(SCc3cc(=O)n4cc(Cl)ccc4n3)nc3ccccc23)cc1,-0.702
15,CCc1nc(NCCC(C)C)c(C#N)c2c1CCCC2,-1.37
16,CCC(=O)N1CCc2cc(S(=O)(=O)CCC(=O)Nc3c(C)n(C)n(-c4ccccc4)c3=O)ccc21,0.5
17,CCn1c(SCC(=O)N=Nc2c(O)[nH]c3ccccc23)nnc1-c1ccc(C(C)(C)C)cc1,0.73
18,COc1ccc(-c2nc(CS(=O)CC(=O)NCc3ccccn3)c(C)o2)cc1 (configuration not stated),0.0296
19,Cc1ccc(-c2nn[nH]n2)cc1,-0.0765
